Hit rate of the full screen: of about 340,000 compounds, about 6,900 (2%) were called active. No stated cut-off is given here; in the data, active means inhibition above about 30%; inactive means below that, where a call was filed. This is a selection; strong and weak results do not stand in their true shares. Where no call is shown, the source filed none.

The assay addresses D(2) dopamine receptor (Homo sapiens) (UniProt P14416). The experiment in a line: HTS Assay for Allosteric Antagonists of the Human D2 Dopamine Receptor: Primary Screen for Antagonists. Further: 0% is about no effect. The following applies: HEK293 TREx D2 cells, calcium flux, dopamine EC80; at 10 µM; stronger effect = higher value. A digest of the protocol: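 Overnight-induced (tetracycline, 30 C) HEK293 T-REx cells carrying force-coupled D2 receive a no-wash calcium dye, then compound, then EC80 dopamine at 180 s; signals are read kinetically throughout.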
Sequence of UniProt P14416 (P14416 whole entry, looked up): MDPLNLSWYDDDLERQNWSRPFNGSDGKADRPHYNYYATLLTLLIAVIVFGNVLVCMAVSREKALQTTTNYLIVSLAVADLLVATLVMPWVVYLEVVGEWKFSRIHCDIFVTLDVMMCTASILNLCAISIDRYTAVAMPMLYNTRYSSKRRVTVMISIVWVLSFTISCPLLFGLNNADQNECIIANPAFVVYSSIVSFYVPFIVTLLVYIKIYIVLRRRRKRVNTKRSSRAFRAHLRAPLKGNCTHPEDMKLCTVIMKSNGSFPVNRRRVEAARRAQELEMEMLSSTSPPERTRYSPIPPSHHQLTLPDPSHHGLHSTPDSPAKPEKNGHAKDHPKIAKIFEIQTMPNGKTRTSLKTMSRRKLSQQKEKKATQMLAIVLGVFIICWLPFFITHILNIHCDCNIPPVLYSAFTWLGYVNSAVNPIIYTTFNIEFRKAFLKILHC
In general terms: Calcium assays in cells follow changes in intracellular calcium, usually with a dye or a luminescent sensor.
In the case of `COc1ccc(Cl)cc1NC(=O)COc1cccc2c(=O)n(C)ccc12`, the inhibition stood at 16.2%.
In the case of `CCCCNC(=O)Cn1nc(N2CCN(c3ccccc3OC)CC2)ccc1=O`, the inhibition was -4.34%.
In the case of `CC(C)N(C(=O)CN1C(=O)C(=O)c2ccccc21)c1ccccc1`, the inhibition is active: 36.2%.
With `CCn1cc(S(=O)(=O)c2cc(C)cc(C)c2)c(=O)c2cc(F)c(N3CCN(c4ccccc4)CC3)cc21`, the inhibition was 0.548%.
`COc1cccc(C(=O)N2CCc3cc(OC)c(OC)cc3C2COc2ccc3c(C)cc(=O)oc3c2)c1` (centres undefined): the inhibition is -14.4%.
As for `O=S(=O)(c1cccc(NC(=S)Nc2ccc(Br)cc2Cl)c1)N1CCOCC1`, the inhibition was active: 37.8%.
On to `CCOc1ccc(C(c2c(O)cc(C)n(CCOC)c2=O)N2CCN(c3ccc(F)cc3)CC2)cc1` (centres undefined), for which the inhibition came out at 4.77%.
In the case of `Cc1sc2ncn(CC(=O)N3CCN(c4cccc(Cl)c4)CC3)c(=O)c2c1S(=O)(=O)N1CCC(C)CC1`, the inhibition is -13.4%.
Turning to `Cc1cccc2cc(-c3nc(-c4cccs4)no3)c(=O)oc12`, the inhibition amounted to 6.7%.
On to `CCN(CC)C(=O)Cn1c(=O)n(CCCCCC(=O)NCc2ccc(C)cc2)c(=O)c2sccc21`, for which the inhibition was -2.34%.
As to `CC(=O)N1CCc2c(sc3c2c(=O)n(-c2cc(Cl)ccc2C)c(=O)n3C)C1`, the inhibition is 6.9%.
For `CCOc1ccc(-n2c(=O)c3c(C)c(C)sc3n(Cc3ccc(C(C)(C)C)cc3)c2=O)cc1`, the inhibition worked out at 7.52%.
Regarding `Fc1ccc(NCc2ccccc2-c2nnc(-c3ccccc3Cl)o2)cc1Cl`, the inhibition worked out at 9.32%.
For the compound `CCc1ccc(-c2cc(C)no2)cc1S(=O)(=O)NCc1ccc(OC)cc1`, the inhibition is -6.4%.
With `CCCn1nnnc1NCc1ccc(SC)cc1`, the inhibition is active: 36.9%.
As for `N#C/C(=C/c1ccccc1Cl)c1nc(-c2cc3ccccc3oc2=O)cs1`, the inhibition is -6.82%.
Then `O=C(Cn1c(=O)n(CC2CCCO2)c(=O)c2ccccc21)Nc1ccc(F)cc1F` (centres undefined), with -25.3%.
With `COC(=O)c1cc(NC(=O)Cn2nc(-c3ccccc3)c3c(c2=O)CCCC3)cc(C(=O)OC)c1`, the inhibition was -2.2%.
Consider `COC(=O)c1cc2sc(C)cc2n1Cc1nc(-c2cccc(Br)c2)oc1C`, for which the inhibition was 3.67%.
`CCOC(=O)C1CCN(c2csc3ccc(C)cc3c2=O)CC1`: the inhibition was -10.7%.
With `CC(C)(C)OC(=O)N1CCC(c2c(C(=O)N3CCN(c4ccccc4F)CC3)cnn2C(C)(C)C)CC1`, the inhibition is -0.902%.
Turning to `CCc1nnc(SC(CC)C(=O)NCCOC)c2cc3occc3n12` (centres undefined), the inhibition was -3.47%.
Take `CN1CCN(C(=O)c2cnn(-c3ccccc3)c2C2CCN(C(=O)OC(C)(C)C)CC2)CC1`: the inhibition came to 2.77%.
For `CCOc1ccccc1N(C)C(=O)c1cc(S(=O)(=O)NCc2ccc(C)cc2)ccc1F`, the inhibition turned out to be 15.3%.
Then `CCc1cccc(NC(=O)Cn2c(=O)n(Cc3ccccc3)c(=O)c3c(C)c(C(=O)N(C)C)sc32)c1`, with -1.24%; and `Cc1cccc(NC(=O)CSc2nc(C)cc(C)c2C(=O)Nc2ccc(Cl)cc2)c1`, with 20.5%; and `Cc1ccc(C)c(NC(=O)Cn2cc(S(=O)(=O)N3CCCC3)c(S(=O)(=O)N3CCCC3)c2)c1`, with 0.373%.
Then `COc1ccc(Cl)cc1NC(=O)c1cc(=O)c2cc(C)cc(C)c2o1`, with 0.0849%; and `CCc1nn2c(=O)cc(COC(=O)c3cccc(NC(=O)COc4ccccc4F)c3)nc2s1`, with -2.31%; and `COc1cc(NC(=O)CN(C)S(=O)(=O)c2ccc3c(c2)CCCC(=O)N3)cc(OC)c1OC`, with 14.4%.
For the compound `CCC(=O)C1=C(c2cccc([N+](=O)[O-])c2)N(C(=O)CC)n2c(nnc2C2CCCCC2)S1`, the inhibition is -20.8%.
Take `COc1ccc(-c2nc3ccccc3o2)cc1NC(=O)COc1c(C)cc(Cl)cc1Cl`: the inhibition was -7.13%.
Regarding `COc1ccccc1N1CCN(CC(=O)c2c(C)[nH]c3cc(C)ccc23)CC1`, the inhibition is active: 63.9%.
For the compound `CC(=O)Nc1ccc(C)cc1NC(C)=O`, the inhibition was active: 34.8%.
As for `Cc1ccccc1-c1nc(CS(=O)(=O)CC(=O)Nc2c(C)cccc2C)c(C)o1`, the inhibition was -11.9%.
For the compound `COc1ccc(-c2cc(C(C)=O)c(C)n2CCC(=O)Nc2cccc(C)c2C)cc1`, the inhibition is 16.7%.
On to `O=C(Cn1c2ncccc2c(=O)n1-c1ccccc1)Nc1cccc(C(F)(F)F)c1`, for which the inhibition turned out to be 1.87%.
For `O=C(CSc1nc2ccccc2c2nc(-c3ccccc3)nn12)Nc1ccc(F)cc1`, the inhibition was -2.49%.
Turning to `Cn1c(=O)oc2cc(NC(=O)CCl)ccc21`, the inhibition was active: 31.9%.
`COc1ccc(N2C(=O)CS(=O)(=O)C23C(=O)N(Cc2ccccc2)c2ccccc23)cc1` (centres undefined): the inhibition was 10.4%.
For the compound `COc1cccc(-c2nc(S(=O)(=O)c3ccc(C)cc3)c(NCc3ccccc3)o2)c1`, the inhibition came to 3.7%.
Take `CCN1CCN(c2cc(C)c3cc(NC(=O)c4cc(OC)c(OC)c(OC)c4)ccc3n2)CC1`: the inhibition is -4.01%.
Regarding `CCOc1ccc(-c2nc(CSCC(=O)NCCc3ccccc3)c(C)o2)cc1`, the inhibition is -5.69%.
For `Clc1cccc(N2CCN(c3nc4ccccc4c4nc(-c5ccccc5)nn34)CC2)c1`, the inhibition was 3.11%.
Take `Cn1c(=O)cc(SCC(=O)NCCc2ccc(Cl)cc2)c2cc(Cl)ccc21`: the inhibition is 19.3%.
For `CCc1ccc2oc(C(=O)N(Cc3cccc(Cl)c3)Cc3ccco3)c(C)c2c1`, the inhibition was -12.8%.
Then `Cc1cc(C)cc(NC(=O)Cn2c(=O)n(CCC(C)C)c(=O)c3cccnc32)c1`, with -26.9%.
The value for `COc1cccc(CNC(=O)CCCn2c(=O)c3cccn3c3ccc(F)cc32)c1OC` was 15%; that for `COC(=O)c1cc2oc(C)cc2n1CC(=O)Nc1ccc(OC)c(OC)c1` was -0.197%.
For the compound `FC(F)(F)c1ccnc(N2CCN(Cc3cnc(-c4ccccc4)[nH]3)CC2)c1`, the inhibition was active: 89.5%.
Take `COC(=O)c1ccc(NC(=O)CSc2nccn2Cc2ccc(Cl)cc2)cc1`: the inhibition is 10.8%.
Consider `CCOc1ccc(-n2c(=O)c3c(C)c(C)sc3n(Cc3c(F)cccc3Cl)c2=O)cc1`, for which the inhibition was -10.9%.
For `COc1ccc(N2CCN(C(=O)CCc3nnc4n(C)c(=O)c5sccc5n34)CC2)cc1`, the inhibition was -16.4%.
In the case of `CCCC(=O)Nc1nc2c(s1)CC(C(C)(C)C)CC2` (centres undefined), the inhibition was found to be 5.39%.
`CC1(C)N=C(c2ccc(F)cc2)C(=O)N1CC(=O)Nc1ccccc1Cl`: the inhibition came to 2.9%.
Then `COc1ccc(-n2c(=O)c3ccc(C(=O)NCc4ccc(C)cc4)cc3n(Cc3ccc(F)cc3Cl)c2=O)cc1`, with 7.62%; and `Cc1ccc(Cn2c3ccccc3c3cnn(CC(=O)N4CCCCCC4)c(=O)c32)cc1`, with 4.21%.
Take `COc1ccc(-n2nc3c(c2NC(=O)C(=O)NCc2ccccc2)CSC3)cc1`: the inhibition came out at 17.1%.
On to `Cc1ccc(CN2C(=O)CC(c3ccc(Cl)cc3)c3c(C)nn(-c4nc(C)cc(C)n4)c32)cc1` (centres undefined), for which the inhibition was found to be 17.6%.
`CCC(=O)N1CCc2cc(S(=O)(=O)CCC(=O)Nc3ccc(C)cn3)ccc21`: the inhibition is active: 64.4%.
Regarding `COc1cc(NC(=O)CN2C(=O)C(c3ccc(C)cc3)=NC23CCCCCC3)cc(OC)c1`, the inhibition was 1.7%.
For `CC(=O)Nc1c(C)nn(-c2ccccc2)c1N1CCC(C(=O)Nc2ccc(Cl)cc2C)CC1`, the inhibition was -7.18%.
`CC12C(=O)N(c3ccccc3C(=O)O)C(=O)C1C1C=CC2C1` (centres undefined): the inhibition was active: 36.2%.
Take `Cc1cc(O)c(C(c2ccccc2)N2CCN(c3ccccc3F)CC2)c(=O)n1Cc1ccco1` (centres undefined): the inhibition is -2.29%.
Regarding `O=C(c1ccco1)N1CCN(Cc2cccc(F)c2)CC1`, the inhibition was active: 84.3%.
Regarding `CCC(=O)N1CCc2cc(Br)cc(S(=O)(=O)CCC(=O)NCc3ccc(C)cc3)c21`, the inhibition was -5.95%.
For `Cc1ccc(OCCCCN2CCc3ccccc3C2)c(C)c1`, the inhibition was active: 75.9%.
For the compound `COc1ccc(CNC(=O)C(=O)Nc2ccccc2OC)cc1`, the inhibition is -20.9%.
For `COC(=O)c1sc(S(=O)(=O)N2CCN(c3ccc(OC)cc3)CC2)c(C(=O)OC)c1C`, the inhibition was determined as 13.7%.
On to `COc1ccc(CNC(=O)c2ccc(NC(=O)N3CCCCc4ccccc43)cc2)c(OC)c1`, for which the inhibition was -22.9%.
`Cc1cc(SCC(=O)NCc2ccccc2Cl)nc(=O)[nH]1`: the inhibition was determined as 27.9%.
Take `Cc1cccc(-c2nc(C)c(CCNC(=O)C(=O)Nc3c(C)cc(C)cc3C)s2)c1`: the inhibition was -14.1%.
As to `COc1ccc(-c2csc3nc(-c4ccc(F)cc4)oc(=O)c23)cc1OC`, the inhibition turned out to be 10.6%.
Take `O=C(c1cccc(C(=O)N(c2ccccn2)C2CCCCC2)c1)N(c1ccccn1)C1CCCCC1`: the inhibition was active: 62.1%.
Consider `Cc1cccc(C)c1NC(=O)CCS(=O)(=O)c1ccc2c(c1)n(C)c(=O)c(=O)n2C`, for which the inhibition is -7.37%.
With `Cc1ccc(-c2noc(CSc3nnc(C)n3-c3ccc(F)cc3)n2)cc1`, the inhibition amounted to 0.675%.
For `Cc1nnc2n1N=C(c1ccc(OC(F)F)cc1)C(C)S2` (centres undefined), the inhibition was active: 56.3%.
Consider `Cc1ccc(CN2CCc3nc(N4CCN(c5ccccc5F)CC4)ncc3C2)s1`, for which the inhibition is -6.56%.
Regarding `Cc1ccc2oc(=O)c3cc(C(=O)NCc4ccc(Cl)cc4)sc3c2c1`, the inhibition is -8.7%.
As for `O=C(Nc1nc2ccccc2n1CCN1CCCCC1)C1CCCCC1`, the inhibition was active: 41.6%.
On to `Cc1ccc(NC(=O)C2CCCN2S(=O)(=O)c2cccc3nsnc23)c(Br)c1` (centres undefined), for which the inhibition was -9.52%.
Then `O=C(NCc1ccccc1F)c1cc2ccccn2n1`, with -0.221%.
As for `CCOc1cccc(OCCOCCN(C)Cc2ccccc2)c1`, the inhibition was active: 30.4%.
`CCN(CC)C(=O)Cn1c(=O)n(CCCCCC(=O)Nc2ccccc2)c(=O)c2sccc21`: the inhibition came to 1.71%.
`COC(=O)c1ccccc1NC(=O)Cn1c(=O)cc(-c2ccccc2)c2c(C)nn(C)c21`: the inhibition is -10.3%.
The value for `CCOC(=O)c1sc2ncn(CC(=O)Nc3cc(C)cc(C)c3)c(=O)c2c1C` was -1.76%; that for `Cc1ccc(C)c(Nc2nn3c(=O)c4ccc(C(=O)N(C)Cc5ccccc5)cc4nc3s2)c1` was -8.88%.
Regarding `Cc1ccccc1C(=O)Nc1cccc(C(=O)OCc2cc(=O)n3c(C)csc3n2)c1`, the inhibition is -6.94%.
With `COc1ccc(CNC(=O)c2ccc(NC(=O)N3CCSc4ncccc43)cc2)c(OC)c1`, the inhibition was found to be 5.73%.
The value for `Cc1nn(Cc2ccccc2Cl)c2sc(C(=O)Nc3nccs3)cc12` was active: 38.4%; that for `CCOc1ccc2oc(=O)cc(CN3CCN(C(=O)c4cccc(Cl)c4)CC3)c2c1` was 8.23%; that for `COc1ccc(NC(=O)c2ncoc2-c2ccco2)cc1Cl` was -1.69%.
For `CC(CNC(=O)c1ccc2nc(CCc3ccccc3)oc2c1)c1ccccc1` (centres undefined), the inhibition was 16.1%.
On to `CCOC(=O)c1cccc(NC(=O)C2CCN(S(=O)(=O)c3c(C)noc3/C=C/c3ccc(C)cc3)CC2)c1`, for which the inhibition stood at 20.2%.

For orientation: inhibition means the relative decrease from the control value, in per cent.

The values are drawn from PubChem BioAssay AID485344 (National Center for Advancing Translational Sciences (NCATS), 2010).
